Experimental data from PubChem BioAssay AID1508624 (National Center for Advancing Translational Sciences (NCATS), 2021).
The campaign covered roughly 48,000 compounds. About 120 (0.25%) were called active. Roughly 4% stayed inconclusive and do not appear here. Calls come from the whole dose curve; as a rule, active = well fitted activation curve with a large enough effect; inconclusive = small, poorly fitted or top-dose-only effect, or another doubt; inactive = no such curve, though single readings can be large or run the other way. Some of the results follow.

Experiment: Primary qHTS for Identification of Small Molecule Activators of Huntingtin-Antisense Promoter Activity; note: nearly all actives have a fitted effect of over 55% in size
Details: HEK293 HTT-AS promoter firefly luciferase reporter, 24 h; series mostly up to 57.5 µM; activity change, positive = activation: at the top concentration
Procedure, shortened: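 Firefly luciferase signal from promoter-reporter HEK293 cells was scaled between vehicle (0%) and zero RLU (-100%). Compounds were tested at final concentrations of up to 57.5 uM over 24 h at 37 degrees C. PTC124 at 50 uM final served as control inhibitor.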

Activity change, positive = activation, inactive:
COc1ccc(NC(=O)C2CCCN(c3nnc(C)c4c(C)n(-c5ccccc5)nc34)C2)cc1Cl (configuration not stated) -36.9%
COCCOC(=O)c1c(-c2ccccc2)c(-c2ccccc2)nn(C)c1=O -11.4%
CCOc1ccc(CC(=O)Nc2c(C(=O)c3ccccc3)oc3ccc(OC)cc23)cc1OCC -7.37%
CCc1ccccc1NC(=O)Cn1c(=O)n(Cc2ccc(OC)cc2)c(=O)c2oc3ccccc3c21 -7.16%
COc1cc2c(Oc3ccc4[nH]c(C)cc4c3F)ncnc2cc1OCCCN1CCCC1 -24.5%
CC(C)c1ccc(N2C(=O)CSC23C(=O)N(Cc2ccccc2)c2ccccc23)cc1 (configuration not stated) -0.804%
Cc1cc(NS(=O)(=O)c2ccc3oc(=O)c4ncn(C)c4c3c2)ccc1Br -34.9%
Cc1ccc(NC(=O)Cn2c(=O)n(Cc3nc(C)no3)c(=O)c3cc4c(cc32)OCO4)cc1 -16.6%
COc1ccc(NC(=O)N2CCN(S(=O)(=O)c3ccc4c(ccn4C)c3)CC2)c(OC)c1 -20.5%
COc1cccc(CNC(=O)C(C)n2c(=O)cc(-c3ccccc3)c3c(C)nn(C)c32)c1 (configuration not stated) -14.7%
COc1ccccc1N1CCN(C(=O)c2cnn(-c3ccc(F)cc3F)c2C2CCNCC2)CC1 -13.8%
Cc1ccc(Nc2nnc(-c3ccc(C)c(S(N)(=O)=O)c3)c3ccccc23)cc1 -42.2%
COc1cccc(C(=O)Nc2ccc3oc(-c4cccc5c(Br)cccc45)nc3c2)c1 -8.86%
COc1cccc2c1C(=O)c1c(O)c3c(c(O)c1C2=O)C[C@@](O)(C(=O)CO)C[C@@H]3O[C@H]1C[C@H](N)[C@H](OC2CCCCO2)[C@H](C)O1 (some centres not stated) -34.2%
CCc1ccccc1N(C)C(=O)c1ccc2c(=O)n3c(nc2c1)CCCCC3 -17.6%
COc1ccc(S(=O)(=O)NCC(c2ccc(N(C)C)cc2)N2CCc3ccccc32)cc1OC (configuration not stated) -2.55%
Cc1cccc(OCC(=O)Nc2cccc3cccnc23)c1C 7.2%
COc1ccc(N2CCN(C(=O)CCc3c(C)nc4cc(-c5ccc(OC)cc5OC)nn4c3C)CC2)cc1 -22.8%
CCOC(=O)c1c(NC(=O)c2ccccc2OCC)sc2c1CCC(CC)C2 (configuration not stated) 6.07% [at 11.5 µM, percent change from vehicle, -100% = no light]
CN(C)S(=O)(=O)c1ccc(C(=O)NCCSc2c(-c3ccc(Cl)cc3)[nH]c3ccccc23)cc1 -27.8%
O=C(CSc1nc(-c2ccc(F)cc2)[nH]c1-c1ccc(F)cc1)Nc1ccc2c(c1)OCCO2 -33.3%
Cc1ccc(C)c(N2CCN(C(=O)c3cnn(-c4ccccc4Cl)c3C3CCN(C(=O)OC(C)(C)C)CC3)CC2)c1 -47.4%
COc1ccc(Cc2nc3ccc(C(=O)NCc4ccccc4Cl)cc3o2)cc1 -17.6%
CCOc1ccc(CC(=O)NCC(c2cccs2)S(=O)(=O)c2ccc(F)c(C)c2)cc1 (configuration not stated) -7.41%
O=C(COc1ccc(Cl)cc1)Nc1ccccc1OCc1cc(=O)n2ccccc2n1 -3.51%
CCc1ccc(NC(=O)C(CC)n2c(=O)c(-c3ccccc3NC(C)=O)nc3ccccc32)cc1 (configuration not stated) -35.3%
Cc1ccc(NC(=O)C2CC(=O)N(c3ccc(OC(C)C)cc3)C2)cc1 (configuration not stated) -14.7%
CCOC(=O)c1c(C)c(-c2ccccc2)n(CC(=O)NC(CC)Cc2ccccc2)c1C (configuration not stated) -4.95%
CCN(CC)c1ccc(NC(=O)C2CCN(S(=O)(=O)c3cnc[nH]3)CC2)c(C)c1 -2.95%
Cc1ccc2oc(-c3ccc(C)c(NC(=O)/C=C/c4ccc(Cl)cc4)c3)nc2c1 7.9%
Cc1cc(C)cc(NC(=O)Cn2cc(C(=O)c3cccs3)c3ccccc32)c1 -27.7%
CC(=O)N1CCC(N(Cc2ccco2)C(=O)Nc2ccc(C)c(Cl)c2)CC1 -22.1%
Cc1ccc2[nH]c3c(=O)n(CC(=O)N(CCN(C)C)Cc4ccccc4)ncc3c2c1 -15.6%
Clc1cccc(C(c2ccc3nc[nH]c3c2)n2ccnc2)c1 (configuration not stated) -1.45%
CC(C)(C)c1nc2c3cc[nH]c(=O)c3c3cc(F)ccc3c2[nH]1 -7.2%
CCOC(=O)CNC(=O)N1[C@H](c2cccs2)[C@@H](C)C(=O)[C@@H](C)[C@@H]1c1cccs1 -20.3%
CCOc1ccc(N2CC(NC(=O)C3CCCCC3)CC2=O)cc1 (configuration not stated) -13.7%
COc1cc(NC(=O)c2nc3nc(C)cc(C(F)F)n3n2)c(OC)cc1Cl 0.114%
CC(C)NCC(O)c1ccc2ccccc2c1 (configuration not stated) -6.08%
Cc1ccc(CNC(=O)c2ccc(CN3CC(=O)N4CCCCC4C3=O)cc2)cc1 (configuration not stated) -10.7%
Cc1nnc(N2C(=O)c3oc4ccccc4c(=O)c3C2c2ccc(Cl)cc2)s1 (configuration not stated) 2.57%
Cc1c(C(=O)OC2CCCCCC2)[nH]c2c1C(=O)CC(c1ccc(Cl)cc1)C2 (configuration not stated) -8.58%
Cc1ccc2c(c1)C(=O)OC(C(=O)Nc1ncc(Cc3ccc(Cl)cc3)s1)C2 (configuration not stated) -4.82%
O=S(=O)(O)c1ccc2cc(N=Nc3cc(S(=O)(=O)O)c4cccnc4c3O)ccc2c1 -14.9%
Cc1cccc(C)c1-n1ncc(C(=O)NC2CCCC2)c1C1CCN(C(=O)OC(C)(C)C)CC1 14.2%
CCOc1ccc(NC(=O)NCc2cccn2Cc2ccccc2)cc1 -16%
O=C(c1ccc2c(c1)CCN2S(=O)(=O)c1ccc(Cl)cc1)N1CCN(c2ccc(F)cc2)CC1 -11.9%
CC(=O)O[C@]1(C(C)=O)CC[C@H]2[C@@H]3C[C@H](C)C4=CC(=O)CC[C@]4(C)[C@H]3CC[C@@]21C -10.7%
O=C(COc1ccc(Cl)cc1Cl)Nc1cccc2cccnc12 2.86%
C=Cc1ccc(Cn2c(=O)n(-c3cccc(Cl)c3)c(=O)c3c4c(sc32)CN(C(C)=O)CC4)cc1 -34.5%
O=C(NCCc1ccc(Cl)cc1)c1ccc2c(c1)N(Cc1ccc(Cl)cc1)C(=O)CS2 -39.6%
COCCCNC(=O)CCn1c(=O)c2ccccc2n(CC(=O)Nc2cc(Cl)ccc2OC)c1=O -13.8%
CCN(Cc1ccccc1)Cc1c(O)ccc2oc(C)c(C(=O)Nc3ccc(C)cc3C)c12 -51.1%
CN1C(C(=O)Nc2cccc(O)c2)=CC(c2ccco2)=NS1(=O)=O -17.5%
Cc1cccc(N2CCn3c2nc2c3c(=O)n(C/C=C/c3ccccc3)c(=O)n2C)c1 -2.99%
CCCCN(CC)c1nc(-c2ccccc2F)nc2ccccc12 -7.71%
Cc1cc(C)c(NC(=O)Cn2nnc(S(=O)(=O)c3ccc(C)c(C)c3)c2N)c(C)c1 -15.9%
CC(C)c1ccc(NC(=O)N2c3ccccc3Sc3ccccc32)cc1 -29.2%
CCc1nnc(NC(=O)c2nc(SCc3ccccc3F)ncc2Cl)s1 1.22%
CCCCOc1ccc(Cn2c(=O)oc3ccc(C)cc32)cc1OC -19%
COc1ccc(S(=O)(=O)N2CCN(c3cccc(C)c3C)CC2)c2ccccc12 -10.7%
O=S1(=O)c2ccccc2N(Cc2ccc(Cl)cc2)c2ccccc21 -33.5%
COc1ccc2c(c1)c(=O)c(C(=O)c1ccc(F)cc1)cn2CC(=O)Nc1ccc2c(c1)OCO2 -26.7%
Cc1ccc(S(=O)(=O)N(CC(=O)NCCSc2ccc(Cl)cc2)c2ccccc2C)cc1 -15.9%
O=C(CCCCCn1c(=O)c2sccc2n(Cc2ccc(Cl)cc2)c1=O)NCc1ccc2c(c1)OCO2 -28%
Cc1cc(Br)ccc1NC(=O)c1sc2nc3n(c(=O)c2c1C)CCCC3 17.8%
CC(C)CCNC(=O)Cn1c(-c2cccs2)cc2cc(F)ccc21 -16.5%
Cc1ccc(NC(=O)C2CCN(c3nnc(C)c4c(C)n(-c5ccccc5)nc34)CC2)c(Cl)c1 -26.1%
COc1ccc(Cl)cc1C(=O)Nc1nnc2n1CCS2 -10.1%
CCc1ccc(CNC(=O)C2COc3ccc(OC)cc3C2)cc1 (configuration not stated) -12.6%
CCOC(=O)c1c(C)sc(-c2c(-c3ccccc3)[nH]c3[nH]c(=O)[nH]c(=O)c23)c1O -6.16%
CN(Cc1ccccc1)C(=O)CSc1nnc(-c2cccc(Cl)c2)o1 3.56%
COc1ccc(-c2noc(-c3ccc(N4CCOCC4)c([N+](=O)[O-])c3)n2)cc1 -11.3%
CCc1ccc(S(=O)(=O)NCc2ccc3c(c2)CCN3C(=O)c2ccc(C)cc2)cc1 -57.9%
CC1=C(C(=O)Nc2ccccc2C)C(c2cccs2)n2nc(SCc3ccccc3)nc2N1 (configuration not stated) -19.3%
O=C(Cn1ncc2c(Cl)cccc21)NCc1cccc(Cl)c1 10.2%
CCc1ccc(-n2nc(CO)c(C(=O)NCCOC)n2)cc1 27.4%
Cc1scc(CN2CCN(c3ccccc3F)CC2)c1C -3.38%
CN(C(=O)CC(=O)Nc1ccc2nc3n(c(=O)c2c1)CCCCC3)c1ccccc1F -47.1%
CC(C)(C)C1CCc2c(sc(NC(=O)c3cccc(Cl)c3)c2C(=O)NCc2ccco2)C1 (configuration not stated) -34.6%
CC(=O)c1ccc(NC(=O)C2CCN(c3nnc(C)c4c(C)n(-c5ccccc5)nc34)CC2)cc1 -20.4%
Cc1ccc(-c2cc(C(=O)N3CCN(S(=O)(=O)c4ccc(Br)cc4)CC3)[nH]n2)c(C)c1 -27.3%
CC(C)OCCCn1c(=O)c2ccccc2n2c(-c3ccccc3)nnc12 7.41%
O=C(Cc1ccccc1)Nc1sc2c(c1C(=O)Nc1cccc(Cl)c1)CCCCC2 -9.57%
CCc1nn2c(=O)cc(COC(=O)Cc3ccccc3)nc2s1 9.19%
O=C(O)C1=NC(C(=O)O)CC(C=CN2c3cc(O)c(OC4OC(CO)C(O)C(O)C4O)cc3CC2C(=O)O)=C1 (configuration not stated) 3.94%
Cc1ccc(S(=O)(=O)c2cn(Cc3ccccc3)c3cc(N4CCCCC4)c(F)cc3c2=O)cc1 -5.16%
CC(C)CCOc1ccc(Cn2c(=O)oc3ccccc32)cc1 3.46%
COc1ccc(NC(=O)CSC2=Nc3ccccc3C3=NC(CC(=O)NCCc4ccccc4)C(=O)N23)cc1 (configuration not stated) -2.41%
O=C(NCc1ccco1)c1ccc(Cn2c(SCc3ccccc3)nc3cccnc32)cc1 5.89%
COc1cc(OC)c(NC(=O)CCS(=O)(=O)c2ccc3c(c2)oc(=O)n3C)cc1Cl 1.45%
Cc1ccc(C2CC(=O)Nc3cc4c(cc32)OCCO4)cc1Br (configuration not stated) -40.8%
